{
  "source": "PubChem BioAssay AID485294",
  "about": "(National Center for Advancing Translational Sciences (NCATS), 2010)",
  "note": "The whole screen tested about 370,000 compounds, of which about 150 (0.041%) were called active. This list was built around the results that the source calls inconclusive (neither active nor inactive); the mix of calls is not that of the screen. Calls follow the shape of the dose curve; as a rule, active = well fitted inhibition curve with a large enough effect; inconclusive = small, poorly fitted or top-dose-only effect; inactive = flat fitted curve, though single readings scatter. Potencies of inconclusive entries are left out as doubtful fits. Potency is read from the fitted curve at half-maximal effect; tags tell the direction and shape of the fitted curve.",
  "data": [
    {"target": "Beta-lactamase (Escherichia coli (strain K12)) (UniProt P00811)", "sequence (P00811 whole entry, looked up)": "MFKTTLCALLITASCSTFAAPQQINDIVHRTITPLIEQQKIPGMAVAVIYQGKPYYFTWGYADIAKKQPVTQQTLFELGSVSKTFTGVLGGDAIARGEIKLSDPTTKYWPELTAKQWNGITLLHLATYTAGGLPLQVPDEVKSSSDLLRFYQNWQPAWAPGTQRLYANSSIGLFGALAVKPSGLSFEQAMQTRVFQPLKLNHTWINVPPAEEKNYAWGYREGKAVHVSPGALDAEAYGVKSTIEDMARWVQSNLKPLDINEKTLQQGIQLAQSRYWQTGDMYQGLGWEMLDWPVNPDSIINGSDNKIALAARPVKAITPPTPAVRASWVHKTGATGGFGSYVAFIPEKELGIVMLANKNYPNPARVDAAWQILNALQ", "assay": "qHTS Inhibitors of AmpC Beta-Lactamase (assay with detergent); also: nearly all actives have a fitted effect of over 25% in size;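 as to activity change, negative = inhibition: 0% = no-compound wells and -100% = no-enzyme wells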", "details": "AmpC hydrolysis of nitrocefin, absorbance 480 nm, 0.01% Triton; activity change, negative = inhibition: at 114 µM (top of the series)", "outline": "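20 mM phosphate pH 7.0 + 0.01% (detergent screen) or 0.0001% Triton X-100; 5.3 nM AmpC reagent; cpd preinc 15 min RT; nitrocefin (800 uM stock) to start; A480 q20 s × 4 min; Activity was normalised to no-enzyme and no-compound control wells.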", "values": [
      {"smiles": "COc1ccccc1/C=c1\\sc2nc(-c3ccccc3OC)nn2c1=O", "activity change, negative = inhibition": "inactive: -12.1%"},
      {"smiles": "CCN(CC)CCCNC(=O)c1nn2c(C(F)(F)F)cc(-c3ccccc3)nc2c1Cl", "activity change, negative = inhibition": "inactive: -12.9%"},
      {"smiles": "O=C(C1CCN(S(=O)(=O)Cc2ccccc2)CC1)N1CCN(c2cccc(C(F)(F)F)c2)CC1", "activity change, negative = inhibition": "inactive: 19%"},
      {"smiles": "O=S(=O)([N-]c1nc2ccccc2nc1-[n+]1ccc(-c2ccncc2)cc1)c1ccccc1", "Potency": "inconclusive [inhibitor, full curve, poor fit]"},
      {"smiles": "Cn1c(-c2ccccc2)cnc1SCC(=O)NCc1ccco1", "Potency": "inconclusive [inhibitor, full curve]"},
      {"smiles": "CC(=NCC1CCCO1)c1c(O)n(C)c(=O)n(C)c1=O", "note": "(centres undefined)", "Potency": "inconclusive [inhibitor, full curve, poor fit]"},
      {"smiles": "Cc1ccc(C(=O)NC(=S)NNS(=O)(=O)c2ccc(C)cc2)cc1", "Potency": "inconclusive [inhibitor, partial curve]"},
      {"smiles": "CC(C)CC(c1nnnn1C1CCCC1)N1CCN(c2ccccc2F)CC1", "note": "(centres undefined)", "Potency": "inconclusive [inhibitor, full curve]"},
      {"smiles": "CCOC(=O)NC(Nc1sc2c(c1C(=O)OC)CCN(C)C2)(C(F)(F)F)C(F)(F)F", "activity change, negative = inhibition": "inactive: -8.59%"},
      {"smiles": "CC(=O)c1cccc(NC(=O)COC(=O)C2=COCCO2)c1", "Potency": "inconclusive [inhibitor, full curve, poor fit]"},
      {"smiles": "CCNC(=S)/N=C(\\N)Nc1nc(C)c2cc(C)ccc2n1", "activity change, negative = inhibition": "inactive: 5.89%"},
      {"smiles": "Cc1oc(C(=O)O)cc1CSc1nnc(-c2ccccc2)n1C", "Potency": "inconclusive [inhibitor, full curve, poor fit]"},
      {"smiles": "COc1ccc(S(=O)(=O)Nc2cc3c4c(c2)C(C)C(=O)N4CCC3)cc1OC", "note": "(centres undefined)", "Potency": "inconclusive [inhibitor, full curve, poor fit]"},
      {"smiles": "On1c2c(c3c4nonc4ccc31)CCCC2", "Potency": "inconclusive [inhibitor, single point]"},
      {"smiles": "NS(=O)(=O)c1ccc2nc(NC(=O)c3ccc(Br)o3)sc2c1", "activity change, negative = inhibition": "inactive: 3.64%"},
      {"smiles": "Cc1ccc(NC(=O)C2OCCc3ccccc32)cc1Cl", "note": "(centres undefined)", "Potency": "inconclusive [inhibitor, partial curve, poor fit]"},
      {"smiles": "COCC(C)NC(=O)/C=C/c1ccc(OC)cc1", "note": "(centres undefined)", "activity change, negative = inhibition": "inactive: -2.43%"},
      {"smiles": "c1ccc(CSc2ccc3nnc(-c4ccccn4)n3n2)cc1", "Potency": "inconclusive [inhibitor, full curve, poor fit]"},
      {"smiles": "COc1ccc(N(Cc2cc3cccc(C)c3[nH]c2=O)C(=O)c2cccc(Cl)c2)cc1", "activity change, negative = inhibition": "inactive: 1.44%"},
      {"smiles": "CCc1cccc(-n2c(=O)c3cccnc3n2CC(=O)Nc2c(C)cc(C)cc2C)c1", "activity change, negative = inhibition": "inactive: 3.48%"},
      {"smiles": "CN(CC(=O)Nc1ccc(Cl)cc1)C(=O)CNC(=O)c1ccc2c(c1)OCO2", "Potency": "inconclusive [inhibitor, full curve]"},
      {"smiles": "O=C(N/N=C/c1cccc([N+](=O)[O-])c1)c1cc2ccccc2o1", "Potency": "inconclusive [inhibitor, full curve]"},
      {"smiles": "CCOc1ccc(-c2ccc(/C=C3/C(=N)N4C(C)=CSC4=NC3=O)o2)c([N+](=O)[O-])c1", "Potency": "inconclusive [inhibitor, full curve, poor fit]"},
      {"smiles": "O=C(NCC1COc2ccccc2O1)C1C2C=CC3(CN(Cc4ccccc4Cl)C(=O)C13)O2", "note": "(centres undefined)", "Potency": "inconclusive [inhibitor, full curve, poor fit]"},
      {"smiles": "Cc1ccc(N(Cc2ccccc2)C(=O)c2cccc(S(=O)(=O)N3CCOCC3)c2)cc1", "Potency": "inconclusive [inhibitor, partial curve, poor fit]"},
      {"smiles": "CCn1c2ccccc2c2cc(NC(C)=O)ccc21", "Potency": "inconclusive [inhibitor, full curve, poor fit]"},
      {"smiles": "Cc1nn(CC(=O)Nc2ccc(OC(F)(F)F)cc2)c(=O)c2c(C)n(-c3ccc(Cl)cc3)nc12", "activity change, negative = inhibition": "inactive: 12.9%"},
      {"smiles": "c1ccc(Cn2c(NCc3ccccn3)nc3ccccc32)cc1", "Potency": "inconclusive [inhibitor, single point]"},
      {"smiles": "CSc1cccc(NC(=O)CNS(=O)(=O)c2ccccc2)c1", "Potency": "inconclusive [inhibitor, partial curve, poor fit]"},
      {"smiles": "O=C(COC(=O)C1CC1)c1c[nH]c2ccccc12", "Potency": "inconclusive [inhibitor, full curve]"},
      {"smiles": "CN(CCNC(=O)c1cc2c(=O)n(C)c3ccccc3c2n1C)Cc1ccccc1", "activity change, negative = inhibition": "inactive: 4.93%"},
      {"smiles": "CCc1ccccc1NC1=NCC(=O)N1Cc1ccccc1", "Potency": "inconclusive [inhibitor, full curve, poor fit]"},
      {"smiles": "Cc1ccccc1-n1c(=O)cc(NCC2CCCO2)[nH]c1=O", "note": "(centres undefined)", "activity change, negative = inhibition": "inactive: 0.93%"},
      {"smiles": "CN(C)c1nc(NC(C)(C)C)nc(NC(C)(C)C)n1", "Potency": "inconclusive [inhibitor, full curve, poor fit]"},
      {"smiles": "O=C(CCCOc1ccccc1)Nc1cccc(S(=O)(=O)N2CCCCCC2)c1", "Potency": "inconclusive [inhibitor, single point]"},
      {"smiles": "Cc1ccc2ncccc2c1N", "Potency": "inconclusive [inhibitor, full curve, poor fit]"},
      {"smiles": "Cc1cccc(C)c1NC(=O)CSC(=S)N1CCCC1", "Potency": "inconclusive [inhibitor, single point]"},
      {"smiles": "COc1nc(Oc2ccc(/C=N/O)cc2)nc(N(C)C)n1", "Potency": "inconclusive [inhibitor, partial curve]"},
      {"smiles": "COC(=O)c1ccccc1NC(=O)C1=CC(c2cccs2)=NS(=O)(=O)N1C", "Potency": "inactive"},
      {"smiles": "CCc1noc(C)c1C(=O)N(C)CC(=O)Nc1ccc(F)c(F)c1F", "Potency": "inconclusive [inhibitor, partial curve, poor fit]"},
      {"smiles": "C#CCOC(=O)C1C2C=CC(C2)C1C(=O)O", "note": "(centres undefined)", "Potency": "inconclusive [inhibitor, full curve, poor fit]"},
      {"smiles": "O=C(CN1CCN(c2ccccc2)CC1)Nc1cccc([N+](=O)[O-])c1", "Potency": "inconclusive [inhibitor, partial curve, poor fit]"},
      {"smiles": "CC(=O)NCc1ccc(C(=O)CCl)cc1", "Potency": "inconclusive [inhibitor, full curve, poor fit]"},
      {"smiles": "O=C(NCC(c1cccs1)N1CCOCC1)c1ccccc1NS(=O)(=O)c1ccc(Cl)c([N+](=O)[O-])c1", "note": "(centres undefined)", "activity change, negative = inhibition": "inactive: 2.5%"},
      {"smiles": "CCOc1ccc2c(c1)/C(=C(\\C(Cl)=C(Cl)Cl)[N+](=O)[O-])N2", "activity change, negative = inhibition": "inactive: 7.87%"},
      {"smiles": "Cc1ccc(S(=O)(=O)N2CCN(C(=O)CCC(=O)NCc3cccc(C(F)(F)F)c3)CC2)cc1", "Potency": "inconclusive [inhibitor, full curve, poor fit]"},
      {"smiles": "CC1=C(C(=O)OC2CCCCCCC2)C(c2cccc(O)c2)NC(=O)N1", "note": "(centres undefined)", "Potency": "inconclusive [inhibitor, full curve, poor fit]"},
      {"smiles": "Cc1cc(=O)oc2cc(NC(=O)c3cccc(Br)c3)ccc12", "activity change, negative = inhibition": "inactive: -8.27%"},
      {"smiles": "CC(C)CN(CCNC(=O)CC1Oc2ccccc2NC1=O)CC(C)C", "note": "(centres undefined)", "Potency": "inconclusive [inhibitor, partial curve]"},
      {"smiles": "O=C(c1cc2ccccc2oc1=O)N(Cc1ccc2c(c1)OCO2)Cc1ccco1", "Potency": "inconclusive [inhibitor, full curve, poor fit]"},
      {"smiles": "CCOc1ccc2nc(SCC(=O)N(C)C)[nH]c2c1", "Potency": "inconclusive [inhibitor, single point]"},
      {"smiles": "COc1cccc(N2CCN(Cc3cccnc3)CC2)c1", "Potency": "inconclusive [inhibitor, full curve, poor fit]"},
      {"smiles": "Brc1ccc(-c2nnc(-c3ccccc3)o2)o1", "Potency": "inconclusive [inhibitor, single point]"},
      {"smiles": "COc1ccc(-n2c(=O)[nH]cc(C(=O)N3CCc4ccccc43)c2=O)cc1", "activity change, negative = inhibition": "inactive: 5.25%"},
      {"smiles": "Cc1cc(N/C=C/C(=O)c2ccccc2)ccc1Br", "Potency": "inconclusive [inhibitor, full curve]"},
      {"smiles": "COc1ccc2nc(N(CCN(C)C)C(=O)c3ccc(C(=O)c4ccccc4)cc3)sc2c1", "Potency": "inconclusive [inhibitor, partial curve, poor fit]"},
      {"smiles": "CC(=O)c1sc(NC(=O)c2ccccc2C)nc1C", "activity change, negative = inhibition": "inactive: 7.83%"},
      {"smiles": "Cc1cc(C)c2sc(NNC(=O)C3COc4ccccc4O3)nc2c1", "note": "(centres undefined)", "Potency": "inconclusive [inhibitor, full curve, poor fit]"},
      {"smiles": "C=CCN1N=C(/C=C/c2ccc(C)cc2)CCC1=O", "activity change, negative = inhibition": "inactive: 1.73%"},
      {"smiles": "c1cnn(-c2cc(N3CCOCC3)ncn2)c1", "Potency": "inconclusive [inhibitor, full curve, poor fit]"},
      {"smiles": "O=C(CC(Cc1ccccc1)c1ccco1)NCc1ccco1", "note": "(centres undefined)", "activity change, negative = inhibition": "inactive: -0.533%"},
      {"smiles": "COc1ccc(C(OC(=O)c2ccco2)C(=O)NCC2CCCO2)cc1", "note": "(centres undefined)", "Potency": "inconclusive [inhibitor, full curve, poor fit]"},
      {"smiles": "COc1ccc(N2CCN(C(=O)/C=C/c3ccco3)CC2)cc1", "Potency": "inconclusive [inhibitor, partial curve, poor fit]"},
      {"smiles": "O=C(CCl)N(C1CCCC1)C1CCS(=O)(=O)C1", "note": "(centres undefined)", "Potency": "inconclusive [inhibitor, partial curve]"},
      {"smiles": "O=S(=O)(NCCc1csc2nc(-c3ccccc3)nn12)c1cc(F)ccc1F", "activity change, negative = inhibition": "inactive: 0.872%"},
      {"smiles": "CC(=O)C1=C(O)C(=O)N(Cc2ccco2)C1c1ccccc1", "note": "(centres undefined)", "Potency": "inconclusive [inhibitor, full curve, poor fit]"},
      {"smiles": "CCC(=O)N1CCN(c2ccc(NC(=S)NC(=O)c3cccc([N+](=O)[O-])c3)cc2)CC1", "activity change, negative = inhibition": "inactive: -1.08%"},
      {"smiles": "COc1cc(/C=N/n2cnnc2)ccc1OC(=O)c1ccncc1", "Potency": "inconclusive [inhibitor, partial curve]"},
      {"smiles": "CC(C)(C)c1csc(N(CCC#N)CCC#N)n1", "Potency": "inconclusive [inhibitor, partial curve]"}
    ]}
  ]
}
